Source: article PMC12136788
This is one part of the list.

T1: UNK ZnF1-3 (human, UniProt Q9C0B0 31-174)
T1 sequence: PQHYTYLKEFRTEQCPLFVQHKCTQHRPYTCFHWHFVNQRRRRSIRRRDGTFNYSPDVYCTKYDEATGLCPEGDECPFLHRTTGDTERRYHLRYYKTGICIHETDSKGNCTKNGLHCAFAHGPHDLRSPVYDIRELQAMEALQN

B1: chr7:63240916:63240917:-_ENSMUSG00000047037_ENSMUST00000052204|mus_mus|FALSE|FALSE (ssRNA)
RNA: GGGAGUUCUACAGUCCGACGAUCUAGCAGACAGCCCAACUUGCCCAAGAUGUUGAGCUUUUCCUUCAGAAGGUAAGAAGCUAAAAUGGACCCAAACGGUACUCCAAGGGCACCUAAGGGAGUCACCAGGACUGUAGGGACCGCCAACAGAGGAUUGAGCAUCA
B2: chr7:31307748:31307749:-_ENSMUSG00000036882_ENSMUST00000044338|mus_mus|motif|central (ssRNA)
RNA: GGGAGUUCUACAGUCCGACGAUCUCUGUACAAGGAUCCUCGGACCUCCCCUCCCCUCCCAUAGGAUGGUGGAGCUGGCCGGUAGAGCAGAAAAGGUUCGGGGGAACCCCAAGGUCCAGGCACCCGAUGGGGAGUAUGUGGACCCAACAGAGGAUUGAGCAUCA
B3: chr7:138713503:138713504:-_ENSG00000146858_ENST00000275766|hu_mus|FALSE|FALSE (ssRNA)
RNA: GGGAGUUCUACAGUCCGACGAUCUUUCUCUUCAAGCAUCUUGUGCAACUUCUUAUGUCUGUAGACAGAGAUUAUCUGGAAAUUCACGACGCUUGAAACACUAAGUUCUUGGUCCUCUAGCAACUUGAGGGUGGCAGCAUGGAUCAACAGAGGAUUGAGCAUCA
B4: chr18:61067831:61067832:-_ENSG00000119541_ENST00000238497|hu_hu|motif|central (ssRNA)
RNA: GGGAGUUCUACAGUCCGACGAUCAGAAACAAGAUCAGAGGAAGAUAUUGAAAAAAAUGUUGAGUUGUUGGCUUCUGUUGCGGCAGCUUUGGCUAAGUAGGACUUUCCUGUUCCAGGCGGCCCAAAUAAUAGGAUUCCCCUCCACAACAGAGGAUUGAGCAUCA
B5: chr14:35505469:35505470:+_ENSMUSG00000041408_ENSMUST00000048263|mus_mus|motif|central (ssRNA)
RNA: GGGAGUUCUACAGUCCGACGAUCCUGGAUGGUAACAUUACACACUGACAAGCAAGAUGGAUGUAAAACAGUGUAAUCUCGGGUCCGUCCAACUGUUCCUCGAAAACUGGUCCCACAACUUGCACUACCUUUCUUUGCCUGAUUCAACAGAGGAUUGAGCAUCA
B6: chr9:21333030:21333031:-_ENSG00000198642_ENST00000537938|hu_mus|FALSE|FALSE (ssRNA)
RNA: GGGAGUUCUACAGUCCGACGAUCAAGGGGAUGAACAAGACCACCCAUGAUACACUGAAAAGGUAUUACACCUUGGAUCUAAGAAUGAUCUGAAGGUGCUGAAAGAGGUGAUUCUCUAGAAGGUGACCCAGGGUUUUCUUCAGGCAACAGAGGAUUGAGCAUCA
B7: chr4:88366173:88366174:-_ENSMUSG00000070923_ENSMUST00000094993|mus_mus|FALSE|FALSE (ssRNA)
RNA: GGGAGUUCUACAGUCCGACGAUCUGGAAAAACUGUGAGAGUGCAAGCCCGAAUGCCACCCAGCGACUCAGGAAGAUCAAAAACUUUAUGCCACUCGUCUUUUUCUGGGUCAUAUUUCUGGACAAUUUCUACCAUGCACCGGUUCAACAGAGGAUUGAGCAUCA
B8: 134010568_134014158_378_CDS_ENSG00000166086_ENST00000529443|human|control|control (ssRNA)
RNA: GGGAGUUCUACAGUCCGACGAUCUUCUGCACGACCCGCCAAGUCUCCCUGAAUUUUGUUGUCAAAAAACACAUAUGUGGUUUGUUCAUCUUGAAUUUUCUUCCACUCGAUCCUGGGGUCACUUGUCUGCGAAUCCGUAAUGAUCAACAGAGGAUUGAGCAUCA
B9: chr4:148551591:148551592:-_ENSMUSG00000063077_ENSMUST00000060537|mus_hu|mus_mus_mus_hu_False|18_48 (ssRNA)
RNA: GGGAGUUCUACAGUCCGACGAUCACCUGACAAAAUUAAAUAUCCCUGUAAAUUAGACAAUAAGCAGCAGGCAACAAAGUCUUUGCUUUGAAAUAUGUGCCAGGAAAAGUCAUCUUGUAGACCCCAAUCAAGAGACAGUUCACACAACAGAGGAUUGAGCAUCA
B10: chr19:8913615:8913616:-_ENSMUSG00000071658_ENSMUST00000096259|mus_hu|mus_mus_mus_hu_False|28_78 (ssRNA)
RNA: GGGAGUUCUACAGUCCGACGAUCAGGGUACCAAAACCUUCUGCCUGAAAUGGGUGCCCCACCCUGCAGGGAGUUGCAGCUGAAAGUAUCUGAUGCAGAAGCAGUGAAUGCAGAGAAGGAGGCCCCUGGGGAGGGCCAGGCCAGCAACAGAGGAUUGAGCAUCA
B11: chr4:88367131:88367132:-_ENSMUSG00000070923_ENSMUST00000094993|mus_hu|FALSE|FALSE (ssRNA)
RNA: GGGAGUUCUACAGUCCGACGAUCUUGGUAAUUGCUAGCUUCCAAAAGCAAAUUCACGCAGGUAUUGUCUGUUCUCAUGAAAUCUACUGUCUGCACGUAAUUGAUGAGAUCCUGUGGUGUCAUCAGUGGAAAUCGAAUAUUCUUCAACAGAGGAUUGAGCAUCA
B12: chr10:75834556:75834557:+_ENSG00000035403_ENST00000372755|perfect_dup|motif|central (ssRNA)
RNA: GGGAGUUCUACAGUCCGACGAUCGUUAAUUUCAGCACUCAUCUUUUCUACAGUAAAAUUUCGAUUUUUCAAAGCUUCUUCGGUUCCUUGGUUUUUUGAGUUUUUGGUUGUAACAAAAAUCUUCAUAGCUGAAAUGAGAACAGGCAACAGAGGAUUGAGCAUCA
B13: chr12:39756943:39756944:-_ENSG00000139116_ENST00000544797|hu_mus|hu_hu_hu_mus_False|8_48 (ssRNA)
RNA: GGGAGUUCUACAGUCCGACGAUCGGUUUGGCUGUUACCCCCAAGGGAAUCCUGCAAGAGUCUUGUCAGCUUAGAGUCUCUGUAAGGGACAUGUGUGGCUCUCUUGCUCUUGUCCCCCAAGGCGCUGAUUACAUUGCCAAGAGCCAACAGAGGAUUGAGCAUCA
B14: chr1:149875238:149875239:-_ENSG00000159164_ENST00000369146|hu_hu|motif|central (ssRNA)
RNA: GGGAGUUCUACAGUCCGACGAUCUUUUGUUAUUUUCACUUUUUUCCUUUUAACAUUUUUUUAAACAUUUUACAAACAUCGGAAAACGGCAACACGUCACAGCUACAGUGGGGUGAGGGGAGGGCACCAAAGAAAGCAGCCACACAACAGAGGAUUGAGCAUCA
B15: 30634669_30638441_433_CDS_ENSG00000106105_ENST00000389266|human|control|control (ssRNA)
RNA: GGGAGUUCUACAGUCCGACGAUCAUCUUCUUUGAGUUUUCGCACAAGAUCUCCCUGCUGGCGCACUGCUAGCCUCAGAGGUGCCAGCACCUCCUCAGCCCCCGCGCCGUCCAUGCUGCUCCGGGAGGCGGCGGCGGGCAAGGACAACAGAGGAUUGAGCAUCA
B16: chr7:151048522:151048523:+_ENSG00000013374_ENST00000566856|hu_mus|hu_hu_hu_mus_True|88_108 (ssRNA)
RNA: GGGAGUUCUACAGUCCGACGAUCCUGCUUCUUAUUUAUUACGAUCUUGAUAUAAUUUUCUUGAAAUCCGAAAGUUUCAGCUAUUUGACACCUCAGGUCUCUACCAGUGACAUGCAAGCGGGUCUCCAACAAGCUUUUCUUAUCCAACAGAGGAUUGAGCAUCA
B17: chr3:37096630:37096631:-_ENSG00000093167_ENST00000421276|perfect_dup|motif|central (ssRNA)
RNA: GGGAGUUCUACAGUCCGACGAUCUUGCUCCAAGGUAGUUAUAUCCUGUUCUGCUUUUGAAAGCUUAAAUUUGUAUUCGCGGAUUUGUCUAUUGGCAUCUCUCUGCAUUUCGAUGAACUGCAAGUCUGAGCCAUUCUGCAGUCCCAACAGAGGAUUGAGCAUCA
B18: chr12:32445735:32445736:+_ENSMUSG00000035933_ENSMUST00000036862|mus_hu|FALSE|FALSE (ssRNA)
RNA: GGGAGUUCUACAGUCCGACGAUCUCGGGCUCUUGCAAUAAAAAGUAGAUCAUUUUCUAUCACUUCUAUUCCAGAAAGAUCUAUUCCUUGAGAAAGAUAAUCAAGUUCAUUGAGACUCUGAGCAGCUUUUGUUAUCUCUCUACUCAACAGAGGAUUGAGCAUCA
B19: chr22:32879901:32879902:+_ENSG00000100225_ENST00000397426|hu_mus|hu_hu_hu_mus_False|8_38 (ssRNA)
RNA: GGGAGUUCUACAGUCCGACGAUCCUCUUCCAUACUCAUGGCAUCCUGAAUUGACUCAGCUUCAACAUUUUGACUAGGCCCUUCCAUACUGUCAUCAUUCCAAACACCAAAUGGGGUGGCCUGUCCUUGGAAUGAAUCAGUCCCCAACAGAGGAUUGAGCAUCA
B20: chr6:31458560:31458561:+_ENSMUSG00000025609_ENSMUST00000026699|mus_hu|motif|central (ssRNA)
RNA: GGGAGUUCUACAGUCCGACGAUCUAAACGGGAGCCCUGGUUCUGCAGAGCUCUUCUGGACGAAAGAGUCAUUUUCUCCGGAAAUUGCUAUUAAGAUAUUAUUCACUACUAGAUCCCUCCUGCUGGUCACUUUUAGAAUGGCUCCAACAGAGGAUUGAGCAUCA
B21: chr3:150289932:150289933:+_ENSG00000144895_ENST00000460851|hu_hu|hu_hu_hu_mus_False|8_108 (ssRNA)
RNA: GGGAGUUCUACAGUCCGACGAUCCUUGUAGUUUUUCACAUCCCAUACUUCCAUUUGUCCUCGAAGAUUUCCAAAUCCAGCCAGCACUAAUAUAUGUCCAUGAGGGCUAUAGAAGGCUGCGUUGCGAGGACCAGUUCCAAAGUCCAACAGAGGAUUGAGCAUCA
B22: chr10:121602103:121602104:-_ENSG00000197771_ENST00000369077|hu_mus|FALSE|FALSE (ssRNA)
RNA: GGGAGUUCUACAGUCCGACGAUCGAGGAAUCCAAGCAGCUCUGCUCUGACUGGAGACAACUCAGACAUGAAAUUGGACACAAACUGACAGCUUCUGCUCUCCUCCUUGUUAAGGCAAGUGGGUAACAACGGAUUGAUGUGCUGCAACAGAGGAUUGAGCAUCA

What follows are binders tested against T1, UNK ZnF1-3 (assay: nsRBNS (natural sequence RNA bind-n-seq); RBNS binding buffer (assumed for nsRBNS): 25 mM Tris pH 7.5, 150 mM KCl, 3 mM MgCl2, 0.01% Triton X-100, 500 ug/ml BSA, 20 U/ml SUPERase-In, 4 C; UNK is unkempt and MSI1 is Musashi-1; names of the RNAs are library labels; protein concentration not given here; high values mean tight binding).

Row | Binder | binding signal [enrichment R]
1 | B1 | 0.997
2 | B2 | 0.843
3 | B3 | 0.819
4 | B4 | 2.63
5 | B5 | 0.902
6 | B6 | 1.29
7 | B7 | 0.786
8 | B8 | 0.639
9 | B9 | 1.42
10 | B10 | 1.86
11 | B11 | 0.689
12 | B12 | 0.958
13 | B13 | 0.639
14 | B14 | 1.7
15 | B15 | 0.124
16 | B16 | 1.01
17 | B17 | 0.553
18 | B18 | 0.798
19 | B19 | 1.04
20 | B20 | 0.68
21 | B21 | 1.01
22 | B22 | 1.47
